Data as given in PubChem BioAssay AID493208 (National Center for Advancing Translational Sciences (NCATS), 2011).
Among all 44,000 compounds or so, about 340 (0.77%) were called active. Roughly 5% stayed inconclusive and do not appear here. The call rests on the fitted dose curve; in most records, active means well fitted inhibition curve with a large enough effect; inconclusive means small, poorly fitted or top-dose-only effect; inactive means flat fitted curve, though single readings scatter. Some of the results follow.

Assay: Acumen qHTS Assay for Inhibitors of the mTORC1 Signaling Pathway in MEF (Tsc2-/-, p53-/-) Cells: Sytravon;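 further: plate controls were DMSO for no effect and rapamycin for full effect; nearly all actives have a fitted effect of over 50% in size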
Details: phospho-rpS6 immunofluorescence/PI, 24 h; series mostly up to 38.3 µM; activity change, negative = inhibition: at the top concentration
Summary of the method: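 Tsc2-/-, p53-/- MEFs (empty-vector stable line) in DMEM + 10% FBS were treated with compounds 24 h at 37 degree Celsius, fixed, and immunostained for phospho-rpS6 (Alexa-488) with propidium iodide counterstain. Laser-scanning cytometry gave % positive cells, normalized against 7.5 nM rapamycin and DMSO.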

Activity change, negative = inhibition, inactive:
Cc1nc2ccn(Cc3ccco3)c(=O)c2cc1C(=O)NCc1ccccc1F 2.98%, CCSc1ncc(Cl)c(C(=O)Nc2nnc(CC)s2)n1 3.43%, O=C(c1ccccc1F)N1c2ncnn2C2(CCCCC2)[C@@H]2CCCC[C@@H]21 0%, Cc1cccc(Nc2nc(N)nc(N)c2S(=O)(=O)c2ccccc2)c1 7.83%, Cc1cccc(NC(=O)CSc2ncc(-c3ccccc3)[nH]2)c1C 5.6%, COc1ccc(C2=C(C)C(N3CCC(C(=O)Nc4ccccc4F)CC3)=NS2(=O)=O)cc1 0.402%, Cc1c(C)n(Cc2ccc(F)cc2)c2ccc(C(=O)N3CCN(c4ccc(F)cc4)CC3)cc12 0%, CCC(C(=O)NCCc1ccccc1)n1nc(C)c2sc3ccccc3c2c1=O (stereo unspecified) 2.43%, O=C(C1CCN(c2ncnc3c2nc2n3CCCCC2)CC1)N1CCN(c2ccccc2F)CC1 2.95%, CCOc1ccc2oc(=O)cc(CN3CCN(C(=O)c4ccc(OC)c(OC)c4)CC3)c2c1 -4.69%, COc1ccc(CNC(=O)c2cc3c(=O)n(Cc4cccnc4)ccc3nc2C)cc1 -11.2%, COc1ccccc1CNC(=O)c1cc2c(=O)oc3ccc(C)cc3c2s1 -6.12%, CCCNS(=O)(=O)c1cc(-c2nn3c(C)nnc3c3ccccc23)ccc1C -11.2%, Cc1ccc2oc(-c3ccc(Cl)c(NC(=O)Cc4ccccc4)c3)nc2c1 -2.08%, COc1ccccc1CCNC(=O)Cc1ccc(NC(=O)N2CCSc3ncccc32)cc1 -9.39%, Cc1ccc(-n2c(=O)c3c4c(sc3n(Cc3cc(=O)n5cc(Cl)ccc5n3)c2=O)CCC4)cc1C -4.57%, CCOC(=O)c1ccccc1NC(=O)CN(c1cccc(C)c1C)S(=O)(=O)c1ccccc1 -10.6%, CC(=O)N1CCCc2cc(S(=O)(=O)N3CCCC(C(=O)NCc4ccccc4Cl)C3)ccc21 (stereo unspecified) 6.2%, CCc1ccc(-c2nn(CC(=O)NC3CCCCC3)c3c2cnc2ccc(F)cc23)cc1 -6.75%, CCOc1ccccc1NC(=O)C1CCN(S(=O)(=O)c2ccc3[nH]c(=O)oc3c2)CC1 -2.38%, CC1CCc2c(cc(-c3ccccc3)n2-c2ccc(C(=O)NC(C)C)cc2)C1 (stereo unspecified) -14.2%, CCc1cccc(OCC(=O)Nc2ccc(S(=O)(=O)Nc3ncccn3)cc2)c1 -0.716%, CC(C)(C)c1ccc(OCc2nc3ccccc3n2CCOc2ccccc2)cc1 0.568%, Cc1cccc(C)c1OCc1nc2c3cnn(-c4ccccc4F)c3ncn2n1 -9.24%, CC(=O)c1ccc(S(=O)(=O)N2CCn3cccc3C2c2ccccc2F)cc1 (stereo unspecified) -2.14%, Cc1cc(C)cc(NC(=O)Cc2csc(C)n2)c1 -4.47%, O=C(CCS(=O)(=O)c1cc(Br)cc2c1N(C(=O)C1CC1)CC2)N1CCN(c2cccc(Cl)c2)CC1 8.62%, COc1ccc(-c2nc3ccccc3n3c(-c4cccc(C)c4)c4c(=O)n(C)c(=O)n(C)c4c23)cc1OC 6.33%, CCC(C)NC(=O)c1c(C)oc2ncn(CC(C)C)c(=O)c12 (stereo unspecified) 2.78%, CCCCNC(=O)C1CCC(Cn2c(=O)c3sccc3n(Cc3ccccc3)c2=O)CC1 (stereo unspecified) 1.35%, O=C(Cn1c(=O)n(CCc2ccccc2)c(=O)c2cccnc21)Nc1ccc(F)cc1 2.1%, CCC(=O)N1CCc2cc(S(=O)(=O)NC(C(=O)NCCc3ccc(OC)c(OC)c3)C(C)C)ccc21 (stereo unspecified) -0.191%, Cc1cc(C)c(NC(=O)c2nc3ccccc3nc2N2CCCCC2)c(C)c1 -5.07%, CC1=C(C(=O)OC2CCCC2)C(c2c(Cl)cccc2Cl)CC(=O)N1 (stereo unspecified) -3.44%, CCCCNC(=O)CSc1nc2cc3c(cc2c(=O)n1CCCC(=O)NCCc1ccc(OC)c(OC)c1)OCO3 -0.253%, Cc1cc(C(=O)N2CCN(c3ccccc3)CC2)c2c(C)nn(-c3cccc(F)c3)c2n1 -5.4%, COc1cc(NC(=O)C2CCN(C(=O)c3sc4nc[nH]c(=O)c4c3C)CC2)cc(OC)c1OC -1.55%, Cc1ccc(N2C(=O)c3n[nH]c(C)c3C2c2ccc(Cl)cc2)cc1 (stereo unspecified) -10.4%, Cc1cc(C)cc(NC(=O)CSc2oc(-c3ccccc3)nc2S(=O)(=O)c2ccc(Cl)cc2)c1 -4.51%, CCOC(=O)c1ccccc1NC(=O)Cn1ncc2c1-c1ccccc1OC2 0.872%, CCOC(=O)c1[nH]c2c(c1Cc1ccccc1OC)C(=O)CC(c1ccc(OC)cc1)C2 (stereo unspecified) -2.02%, Cc1ccc(CNC(=O)c2nn(-c3ccc(Cl)cc3)nc2CO)cc1 3.08%, Cc1ccccc1CSc1nnc2[nH]c(=O)cc(-c3ccccc3)n12 0.988%, CCc1ccc(-n2c(=O)c3c4c(sc3n(Cc3cc(=O)n5c(C)cccc5n3)c2=O)CCC4)cc1 0.991%, Cc1ccc(NC(=O)Cn2nc(C(F)(F)F)c3c2CCCC3)cc1C 0.721%, CCc1ccccc1NS(=O)(=O)c1ccc2nc(-c3ccccc3)[nH]c2c1 -19%, CC(C)OCCCNC(=O)C(=O)Nc1c2c(nn1-c1ccccc1)CS(=O)(=O)C2 -20.5%, Cc1ccc2c(c1)N(CC(=O)NCCc1ccccc1)C(=O)CO2 -3.49%, CCOC(=O)c1c(C)[nH]c(C)c1S(=O)(=O)N1CCC(C(=O)Nc2ccc(OCC)cc2)CC1 -4.9%, CCCCn1cc(S(=O)(=O)c2cc(C)ccc2C)c(=O)c2cc(F)c(N3CCC(C)CC3)cc21 -8.55%, CC(C)OCCCNc1ncnc2sc3c(c12)CCCC3 -20.2%, Cc1ccc(C)c(Cn2c(=O)n(CCCCC(=O)NCc3ccc4c(c3)OCO4)c(=O)c3ccccc32)c1 -20.7%, CCCC(=O)Nc1cc2nn(-c3ccccc3)nc2cc1C 4.59%, CCc1ccccc1NC(=O)Nc1c(C)n(C)n(-c2ccccc2)c1=O 1.35%, CCc1cccc(NC(=O)CN(c2ccc(C)c(C)c2)S(=O)(=O)c2ccsc2C(=O)OC)c1 -16.3%, Cc1ccc(C)c(N2CCN(C(=O)CN3C(=O)COc4ccc(S(=O)(=O)N5CCCC5)cc43)CC2)c1 0.425%, COc1ccc(C(=O)NCC(c2ccco2)S(=O)(=O)c2ccc(F)cc2)cc1 (stereo unspecified) -7.98%, CCOC(=O)c1ccc(N2C(=O)c3[nH]nc(-c4ccc(C)cc4)c3C2c2cccs2)cc1 (stereo unspecified) -7.68%, CCCc1nc2nc(C)c(NS(=O)(=O)c3ccc(CC(C)C)cc3)c(=O)n2[nH]1 2.11%, CSc1ncc(C(=O)Nc2ccccc2C(F)(F)F)c(-c2ccccc2)n1 -10.8%, CCCn1c(CCC(=O)Nc2cc(C(=O)OC)cc(C(=O)OC)c2)nc2cccnc21 -15%, CCCCOc1ccc(Cn2c(=O)sc3ccccc32)cc1OC -4.84%, CCCn1c(CCC(=O)Nc2cc(OC)cc(OC)c2)nc2cccnc21 -2.07%, COC(=O)c1scc(-c2ccc(C)cc2)c1S(=O)(=O)Nc1cc(Cl)c(OC)cc1OC -26.3%, CCOC(=O)c1[nH]cnc1C(=O)Nc1cccc(OC)c1 0.435%, Cc1ccccc1CCNC(=O)c1ccc2c(c1)nc1n2CCOC1 0.0602%, Cc1cc(NC(=O)CCn2c(=O)c3cccn3c3cccnc32)ccc1Br -4.9%, CCC(=O)N1c2ccccc2CC1C(=O)NCCc1cc(OC)c(OC)c(OC)c1 (stereo unspecified) 5.62%, CCCN1CCN(c2nnc(-n3cccc3C(=O)Nc3cc(Cl)ccc3C)s2)CC1 -5.23%, CCSc1ncc(Cl)c(C(=O)Nc2nc3ccc(S(C)(=O)=O)cc3s2)n1 1.53%, COc1ccc(-n2c(=O)c3sc4ccccc4c3n(C)c2=O)cc1 1.86%, Cc1ccc(NC(=O)C2CCCN(S(=O)(=O)c3cccc4nsnc34)C2)cc1C (stereo unspecified) -3%, CCOC(=O)Cc1ccc(NC(=O)N2CCSc3ccccc32)cc1 1.6%, Cc1ccc(-c2nc(CS(=O)CC(=O)NCc3ccccc3Cl)c(C)o2)cc1 (stereo unspecified) 6.53%, COCCNC(=O)C1CCN(C(=O)c2cc3sccc3n2Cc2ccc(Cl)cc2)CC1 1.47%, CCCN(CCC)CCCNC(=O)C1CCCN(Cc2nc(-c3ccc(Cl)cc3)oc2C)C1 (stereo unspecified) -7.55%, COc1ccc(C2(Nc3cccc(F)c3)C(=O)c3ccccc3C2=O)cc1 -0.0597%, COc1ccccc1NC(=O)CSC1=Nc2ccccc2C2=NC(CCC(=O)NCc3ccco3)C(=O)N12 (stereo unspecified) -0.563%, O=c1ccc2cc(S(=O)(=O)Nc3ccc(F)c(Cl)c3)ccc2[nH]1 0.354%, CCOc1ccc2nc(SCC(=O)Nc3ccc(F)cc3)nc(-c3ccccc3)c2c1 -4.36%, O=S(=O)(c1ccc(Cl)cc1)c1nc(-c2cccs2)oc1SCc1ccc(F)cc1 0.433%, COc1cccc(CNC(=O)Cc2c(C)c3c(cc(C)c4c(C)c(C)oc43)oc2=O)c1 -6.01%, Cn1nnc2c(NCc3ccc(Cl)cc3)ncnc21 -9.15%, CC1=C(C(=O)Nc2ccc(Cl)cc2)C(c2ccccc2F)n2nc(SCc3cccc(Cl)c3)nc2N1 (stereo unspecified) -16%, COc1ccc(OC)c(NC(=O)C2Cc3ccccc3CN2S(=O)(=O)c2ccc(F)cc2)c1 (stereo unspecified) -2.95%, Cc1ccc(Cn2c(=O)n(CCc3ccc(Cl)cc3)c(=O)c3ccccc32)cc1 2.23%, CCc1ccc(CNC(=O)c2cc3n(n2)CCCN(Cc2ccccc2)C3=O)cc1 -9.02%, COc1ccc(NC(=O)Cn2c(=O)n(Cc3ccccc3OC)c(=O)c3cccnc32)cc1Cl 0.954%, Cc1ccc(Nc2c(-c3ccc(C)s3)nc3ccccn23)cc1 0.481%, COC(=O)c1cccc(NC2=NS(=O)(=O)c3ccccc32)c1 -1.44%, Cc1cc(Cl)ccc1NC(=O)Cc1ccc(NC(=O)N2CCCCc3ccccc32)cc1 2.16%, COc1ccc(C)cc1NC(=O)C1CCN(S(=O)(=O)c2cc(Br)cc3c2N(C(C)=O)CC3)CC1 -0.847%, COc1ccc(C)c2sc(N3CCN(C(=O)c4cccc(F)c4)CC3)nc12 -0.303%, CCOc1ccccc1NC(=O)N(Cc1ccc(C)o1)C1CCN(C(C)=O)CC1 1.21%, Cc1ccc(-c2cc3ncc4c(n3n2)-c2cc(F)ccc2OC4)cc1 4.18%, CCOC(=O)CNC(=O)N1CCCN(S(=O)(=O)c2ccc3c(ccn3CC)c2)CC1 -4.84%
